This passage reports survival results from PubChem BioAssay AID463173 (ICCB-Longwood Screening Facility, Harvard Medical School, 2010).

About 1,700 (3.3%) of roughly 52,000 compounds were called active. Cut-off read from the data, not from the text of the source: active = survival mostly below about 52% (no sharp cut-off); inactive = mostly above about 56%. Some of the results follow.

The test system of this experiment is Wild type. Briefly: S. aureus survival, RN4220 and DeltatarO strains – OD600, teichoic acid synthesis inhibitors, primary screen (AID 463173). The following applies: S. aureus RN4220 wild type/DeltatarO growth, OD600, 18 h, hits give low values, screened at 18.75 µg/mL (by protocol).
In the case of `CCCCn1c(SCC(=O)NC(C)(C)C)nnc1-c1ccncc1`, the survival was inactive: 110%.
Take `CC(N)c1ccc2c(c1)OCCO2` (stereo not given): the survival was inactive: 83%.
`Cc1ccccc1CNC(=O)Cc1csc2ccccc12`: the survival is inactive: 94%.
As for `CCCSc1ncc(Cl)c(C(=O)Nc2sc3c(c2C(N)=O)CCCC3)n1`, the figure is inactive: 83%; as for `COC(=O)c1ccc(-n2nnc(-c3nsc(NC(=O)c4ccc(Cl)cc4)n3)c2C)cc1`, inactive: 79%; as for `O=c1c(NCCc2ccc(Cl)cc2)nccn1-c1ccccc1`, active: 14%.
As for `COc1ccccc1NC(=O)CCNS(=O)(=O)c1ccc2c(c1)CCN2C(=O)C1CC1`, the figure is inactive: 135%; as for `CCNc1nc(OCC(F)(F)F)nc(N(c2ccccc2)c2ccccc2)n1`, inactive: 129%.
As for `Cc1cc2n(n1)CCCN2C(=O)Nc1ccc(C)c(Cl)c1`, the figure is inactive: 66%; as for `Cc1ccc(C)c(N2CCN(S(=O)(=O)c3ccc(F)c(C(=O)Nc4ccc(Cl)cc4Cl)c3)CC2)c1`, inactive: 80%.
With `CC(O)Cn1c(Br)nc2c1c(=O)n(C)c(=O)n2C` (stereo not given), the survival was inactive: 103%.
Regarding `COc1ccc(OC)c(CCNC(=O)c2cc3cccc4c3n2CCS4)c1`, the survival was inactive: 71%.
As to `CCOC(=O)c1c(C)oc2ccc(N(C(=O)c3ccncc3)S(=O)(=O)c3ccc(F)cc3)cc12`, the survival was inactive: 54%.
As for `CCN(Cc1ccccc1)C(=O)CCS(=O)(=O)c1cc(Br)cc2c1N(C(=O)C1CC1)CC2`, the figure is inactive: 78%; as for `CN(c1ccccc1)S(=O)(=O)c1nnc(NC(=O)c2cccs2)s1`, inactive: 59%; as for `CCc1ccccc1N(C)C(=O)c1cc2c(Cl)nc3ccc(C)cc3c2s1`, active: 0%.
To `Cc1ccc2[nH]c3c(=O)n(CC(=O)NCCCN4CCN(c5ccc(F)cc5)CC4)ncc3c2c1` belongs inactive: 87%; to `CCOc1ccccc1NC(=O)Cn1c(=O)n(CCCCC(=O)NCCCOC)c(=O)c2ccccc21`, inactive: 148%.
To `CCc1ccc(NC(=O)Cn2nnc(C(=O)NCCc3ccccc3)c2N)cc1` belongs inactive: 101%; to `O=C(NCc1cccc(F)c1)C1CCN(c2nn3cc(-c4ccc(F)cc4)nc3s2)CC1`, inactive: 72%.
`N#Cc1ccccc1Cn1c(=O)n(-c2ccccc2)c(=O)c2c3c(sc21)CCC3`: the survival is inactive: 81%.
Regarding `Cc1cccc(C)c1NC(=O)c1nc(SC(C)C)ncc1Cl`, the survival was inactive: 106%.
As for `O=C(Nc1ccc(O)c(-c2nc3ccccc3o2)c1)c1ccc(-c2cccc(Cl)c2)o1`, the figure is inactive: 77%.
To `CC1CCN(S(=O)(=O)c2ccc3c(c2)oc(=O)n3CC(=O)N2CCCCC2)CC1` belongs inactive: 76%.
In the case of `Cc1ccccc1CNCCSc1nnnn1C`, the survival was inactive: 66%.
To `COCCCNC(=O)C1CCN(C(=O)c2ccc(-n3ccc4ccccc43)s2)CC1` belongs inactive: 76%; to `Cc1cc(C)cc(N(CC(=O)Nc2ccc(C)cc2Cl)S(=O)(=O)c2c(C)[nH]c(=O)[nH]c2=O)c1`, inactive: 60%; to `COc1cccc(CNC(=O)CSc2nnc(C)c3c(C)n(-c4ccccc4)nc23)c1`, inactive: 73%.
As for `Cc1ccccc1Nc1c(-c2ccc(O)cc2)nc2c(C)cccn12`, the figure is inactive: 68%; as for `CCC(C(=O)Nc1ccc(F)cc1F)n1nc(-c2ccccc2)c2c(c1=O)CCCC2` (stereo not given), inactive: 76%; as for `COc1ccc(NC(=O)CCS(=O)(=O)c2cc3c4c(c2)CCN4C(=O)CC3)cc1OC`, inactive: 110%.
To `Cc1nc(N)c(S(=O)(=O)c2ccccc2)c(Nc2ccc(Br)cc2)n1` belongs inactive: 85%; to `COc1cccc(/C=C/c2nc3ccccc3c(=O)n2-c2ccc(C)c(C)c2)c1OC`, inactive: 70%.
For the compound `COc1ccc(Cl)cc1S(=O)(=O)N1CCC(c2ccncc2)CC1`, the survival was inactive: 134%.
As for `CC(=O)N1c2ccccc2CC1C(=O)N1CCN(c2cc(Cl)ccc2C)CC1` (stereo not given), the figure is inactive: 92%; as for `CS(=O)(=O)N1CCN(S(C)(=O)=O)CC1`, inactive: 104%.
For `COc1ccc(NC(=O)c2ccco2)cc1NC(=O)COc1cc(C)ccc1C(C)C`, the survival was inactive: 85%.
To `COc1ccc(-c2nnc(SCC(=O)Nc3ccc(C)c(Cl)c3)nc2-c2ccc(OC)c(OC)c2)cc1OC` belongs inactive: 131%.
To `O=C(c1ccc(F)cc1)N1CCN(CCc2ccncc2)CC1` belongs inactive: 86%; to `CCOc1ccc(NC(=O)c2c(NC(=O)c3ccncc3)sc3c2CCC(C(C)(C)C)C3)cc1` (stereo not given), inactive: 106%; to `O=C(c1cccn1-c1nnc(N2CCCC2)s1)N1CCN(c2ccc(F)cc2)CC1`, inactive: 128%.
As for `Cc1cccc(OCC(=O)NCc2ccc3c(c2)CCN3C(=O)c2ccc(Cl)cc2)c1`, the figure is inactive: 112%; as for `CC(=O)Nc1ccc(NC(=O)CN2C(=O)CCc3cc(S(=O)(=O)N4CCCCC4)ccc32)cc1`, inactive: 70%.
As to `O=C(Cn1cc(SCc2ccc(Cl)cc2)c2ccccc21)N1CCCC1`, the survival is inactive: 97%.
As for `Cc1cccc(CNC(=O)CN2CC(C)Sc3ccccc32)c1` (stereo not given), the figure is inactive: 71%; as for `O=C(Nc1ccc(F)cc1)Nc1nnc(SCC(=O)N2CCCCC2)s1`, inactive: 73%; as for `Cc1c(Cl)cccc1-n1nnc(-c2nc(-c3ccc4c(c3)OCO4)no2)c1C`, inactive: 73%.
As for `COc1cccc(NC2=CC(c3ccc(C(C)C)cc3)N(c3cccc(OC)c3)C2=O)c1` (stereo not given), the figure is inactive: 76%; as for `O=C(NCc1ccco1)C(C(=O)c1ccccc1)n1ccccc1=O` (stereo not given), inactive: 117%; as for `Cc1c(C(=O)N(Cc2cccc(Cl)c2)Cc2ccco2)oc2ccccc12`, inactive: 72%.
With `C=CCN(C)NC(=S)Nc1ccccc1`, the survival was inactive: 103%.
To `COc1ccc(C)cc1NS(=O)(=O)c1cc(Br)cc2c1N(C(C)=O)C(C)C2` (stereo not given) belongs inactive: 73%; to `CCOc1ccc(S(=O)(=O)NCc2cccn2Cc2cccc(C)c2)cc1`, inactive: 71%.
To `CC(C)COc1ccc(C(=O)N(Cc2cccc(F)c2)C2CCS(=O)(=O)C2)cc1` (stereo not given) belongs inactive: 83%; to `CCOC(=O)c1cnc2ccc(OCC)cc2c1NCCc1ccc(OC)c(OC)c1`, inactive: 133%.
`CCOC(=O)c1cc(-c2ccccc2)n(-c2cccc(C(=O)NC(C)(C)C)c2)c1C`: the survival was inactive: 118%.
To `CCCn1c(=N)c(C(=O)NC2CCCCC2)cc2c(=O)n3cc(C)ccc3nc21` belongs inactive: 70%.
As for `Cc1ccc(C)c(N2CCN(C(c3ccccc3)c3nnc(-c4ccccc4)o3)CC2)c1` (stereo not given), the figure is active: 1%.
`CCCn1c2ccccc2c2cnn(CC(=O)NCCCOC(C)C)c(=O)c21`: the survival was active: -6%.
In the case of `CCN1CCc2c(sc(-n3cccc3)c2C(CCC(C)C)NC(=O)NCCC(=O)OC)C1` (stereo not given), the survival is inactive: 73%.
As for `CCc1cccc(C)c1NC(=O)C(NS(=O)(=O)c1ccc2c(c1)CCC(=O)N2)c1ccccc1` (stereo not given), the figure is inactive: 77%.
As for `COc1ccc(CN(Cc2ccco2)S(=O)(=O)c2ccc(S(=O)(=O)N3CCCC3)cc2)cc1`, the figure is inactive: 111%; as for `Cc1ccc(NS(=O)(=O)c2c(C)nc3sc(C)c(C)n3c2=O)cc1F`, inactive: 91%.
As for `O=C(CSc1nc2ccsc2c(=O)n1-c1ccc(Br)cc1)NCc1ccc(Cl)cc1`, the figure is inactive: 81%; as for `O=C(NCCCN1CCOCC1)C1CC(c2ccccc2O)=NO1` (stereo not given), inactive: 125%; as for `COc1ccc(CCNC(=O)Cc2ccc(NC(=O)N3CCSc4ncccc43)cc2)cc1OC`, inactive: 69%.
As for `Cc1cccc(NC(=O)c2cc3c([nH]c2=O)CC(c2ccccc2)CC3=O)c1` (stereo not given), the survival is active: -3%.
As for `COc1cccc(-c2nc(CS(=O)(=O)CC(=O)Nc3ccc(C)c(Cl)c3)c(C)o2)c1`, the figure is inactive: 126%.
To `COc1cccc(CNC(=O)Cn2cccc2C(=O)c2ccccc2)c1` belongs inactive: 89%; to `COc1ccc(C(=O)N2CCN(c3nc4c(OC)cccc4s3)CC2)cc1OC`, inactive: 64%.
Take `O=C(Cn1c(=O)n(Cc2ccc(F)cc2)c(=O)c2sc3ccccc3c21)Nc1ccc(F)cc1F`: the survival was inactive: 80%.
As for `COc1cc(C(=O)NCc2nc(-c3ccc(Cl)cc3)no2)cc(OC)c1OC`, the figure is inactive: 86%.
To `COC(=O)CCNC(=O)N1CCN(c2nnc(C)c3c(C)n(-c4ccccc4)nc23)CC1` belongs inactive: 78%; to `COc1ccc(OC)c(-n2c(-c3cc(-c4ccco4)[nH]n3)n[nH]c2=S)c1`, inactive: 107%.
In the case of `CCOc1ccc(NC(=O)C2CC(=O)NC(N3CCCCC3)=N2)cc1` (stereo not given), the survival is inactive: 100%.
As for `CCc1ccc(CNC(=O)C2COc3ccccc3C2)cc1` (stereo not given), the figure is inactive: 88%; as for `Cc1cccc(CN2C(=O)c3ccccc3S(=O)(=O)c3ccc(C(=O)OCC4CCCO4)cc32)c1` (stereo not given), inactive: 72%; as for `CCOc1ccc(C2CC(=O)Nc3c2c(=O)[nH]c2ncnn32)cc1` (stereo not given), inactive: 68%.
As for `CCn1c(CNC(=O)c2ccc(OC)cc2)nnc1SCC(=O)Nc1ccc(F)cc1`, the figure is inactive: 120%; as for `CCc1ccc(C(=O)c2cn(CC(=O)Nc3ccc(F)cc3)c3ccc(F)cc3c2=O)cc1`, inactive: 70%; as for `Cc1cccc(C(=O)Nc2cc(-c3ccccc3F)nn2-c2ccccc2)c1`, inactive: 59%.
To `CCOC(=O)c1cc(S(=O)(=O)N2CCN(c3ccccc3OC)CC2)[nH]n1` belongs inactive: 124%.
On to `Cc1ccc(N2CC(NC(=O)C3CCCCC3)CC2=O)cc1` (stereo not given), for which the survival was inactive: 73%.
As for `O=C(NCc1ccco1)c1c2c(nc3ccccc13)-c1ccccc1CC2`, the survival was inactive: 121%.
As for `COc1ccc(NC(=O)CSCc2cc(=O)c3cc(Cl)ccc3[nH]2)cc1`, the figure is inactive: 73%; as for `CCCC1(C)NC(=O)c2ccccc2O1` (stereo not given), inactive: 108%.
As for `COc1ccc(-c2cc(C(=O)Nc3c(C)nn(Cc4ccccc4C)c3C)no2)cc1`, the figure is inactive: 87%.
As for `COc1cc(NS(=O)(=O)c2cc3[nH]c(=O)[nH]c3cc2C)cc(OC)c1OC`, the figure is inactive: 32%; as for `Cc1ccc2onc(CNC(=O)N3CCN(c4cc(Cl)ccc4C)CC3)c2c1`, inactive: 61%.
Take `CC(CNC(=O)c1cc2cc(S(=O)(=O)N3CCCCC3)ccc2n1C)c1ccccc1` (stereo not given): the survival was inactive: 55%.
